Reference: ChEMBL document CHEMBL4888484, “Replenishing the malaria drug discovery pipeline: Screening and hit evaluation of the MMV Hit Generation Library 1 (HGL1) against asexual blood stage Plasmodium falciparum ,using a nano luciferase reporter read-out” (2022)
The whole screen tested about 150,000 compounds, of which about 540 (0.36%) showed an effect of 50% or more. The list shows a part of the results.

These compounds were tested on Plasmodium falciparum (assay: Primary screen in NF54 nanoGlo assay, in single point, at 2uM, 72h; a lower Z score goes with more inhibition). Details: timepoint 72 hour.
Format: functional, Erythrocyte
In the case of `O=C(Cc1ccon1)N[C@@H]1CCCOC1`, the “% Inhibition” value is reported as 7% and the Z score is reported as -1.35.
`COc1ccnc(C(=O)N2CCc3[nH]nc(C)c3C2)c1` was tested, and the “% Inhibition” value was 3% and the Z score was -0.49.
For `CC(C)CCn1c(=O)c2sccc2n(CC(=O)NC2CCCCC2)c1=O`, the “% Inhibition” value was 31% and the Z score was -3.55.
In the case of `O=S(=O)(NCCNC1CC1)c1c(F)c(F)cc(F)c1F`, the “% Inhibition” value is reported as -10% and the Z score is reported as 1.87.
`Cc1cc(O)nc(C=Cc2cn(C)nc2C(C)(C)C)n1` was tested, and the “% Inhibition” value was -5% and the Z score was 0.61.
For `CCn1cncc1-c1nc2c([nH]1)c(-c1ccccc1)nn2C`, the “% Inhibition” value was -2% and the Z score was 0.29.
With `COc1ccccc1[C@@H](NC(=O)CCc1cncn1C)c1ccco1` the “% Inhibition” value was 1% and the Z score was -0.16.
For `Cc1nc(C)c([C@H](C)N(C)S(=O)(=O)c2cccnc2C#N)s1`, the “% Inhibition” value was -3% and the Z score was 0.42.
In the case of `CC(C)[C@H](NC1CCOCC1)c1ncnn1C`, the “% Inhibition” value is reported as -6% and the Z score is reported as 0.84.
In the case of `O=C(NC(CO)C(O)c1ccccn1)[C@H]1C[C@@H]1c1ccccc1Cl` (some centres undefined), the “% Inhibition” value is reported as -2% and the Z score is reported as 0.25.
In the case of `O=C(NCCc1nnc2ccccn12)c1csc(NC2CC2)n1`, the “% Inhibition” value is reported as -10% and the Z score is reported as 1.11.
With `C[C@@H](NC(=O)c1ccc(C(N)=O)s1)c1ncc[nH]1` the “% Inhibition” value was 2% and the Z score was -0.43.
In the case of `CC(C)c1nn(-c2ccccc2)c(N(C)C)c1CN(CC1CC1)C(=O)C1CCC1`, the “% Inhibition” value is reported as 2% and the Z score is reported as -0.4.
`Cc1cnc(CN2C[C@@](C)(c3ccccc3)CCC2=O)cn1` was tested, and the “% Inhibition” value was -9% and the Z score was 1.77.
For `Cc1ccc(Br)c(S(=O)(=O)NC2(C#N)CC2)c1`, the “% Inhibition” value was -5% and the Z score was 0.49.
In the case of `CCN(CC)C(=O)N1CCC[C@H](C(=O)Nc2cccc(C)c2C)C1`, the “% Inhibition” value is reported as 0% and the Z score is reported as 0.01.
In the case of `CCNC(=O)N1CCC[C@H](Cn2c(C3CC3)nc3cccnc32)C1`, the “% Inhibition” value is reported as -20% and the Z score is reported as 3.11.
`Cc1occc1CN(C)c1nnc(C(C)(C)C)n1C[C@H]1CCCO1` was tested, and the “% Inhibition” value was -4% and the Z score was 0.73.
With `CCCN(Cc1ccncc1)C(=O)[C@H]1CCC(=O)N(CCc2ccccc2)C1` the “% Inhibition” value was -13% and the Z score was 2.26.
In the case of `Cc1nc(C(=O)N2CCC[C@@]3(CCC(=O)N(CCc4c[nH]cn4)C3)C2)cs1`, the “% Inhibition” value is reported as -9% and the Z score is reported as 0.98.
For `Cc1nc(Cn2ncc(N(C)C)cc2=O)n(C)n1`, the “% Inhibition” value was -1% and the Z score was 0.07.
For `CCOC(=O)C(C#N)C(Cc1ccccc1)C1CCOC(C)(C)C1` (centres undefined), the “% Inhibition” value was -4% and the Z score was 0.53.
With `CCC(=O)N(CC(=O)N(Cc1ccccc1)Cc1ccc(C)o1)C1CC1` the “% Inhibition” value was -4% and the Z score was 0.42.
For `Cc1nc2ccccc2n1C(=O)c1sc2ccccc2c1Cl`, the “% Inhibition” value was 43% and the Z score was -5.1.
For `Cc1cc(S(=O)(=O)N(C)C)cc(NC(=O)COc2cc3nc(-c4ccccc4)cc(C)n3n2)c1C`, the “% Inhibition” value was -12% and the Z score was 2.35.
For `C[C@H]1CCCN(CCC(=O)N(C)Cc2cc3ccccc3s2)C1`, the “% Inhibition” value was -6% and the Z score was 1.23.
With `NC(=O)N1CCC[C@H]1C(=O)NC1CC2CCC1C2` (some centres undefined) the “% Inhibition” value was 26% and the Z score was -3.33.
For `CC(C)(C)c1noc(-c2ccsc2S(N)(=O)=O)n1`, the “% Inhibition” value was -10% and the Z score was 2.01.
With `CCC1C[N+]2([O-])CCc3cc(OC)c(OC)cc3C2CC1CC1NCCc2cc(OC)c(OC)cc21` (centres undefined) the “% Inhibition” value was 32% and the Z score was -3.58.
`CC[C@H](C)N(Cc1cccc(OS(=O)(=O)CC)c1)C(=O)CC(C)C` was tested, and the “% Inhibition” value was -3% and the Z score was 0.55.
With `CN(C)[C@@H]1CN(C(=O)c2ccc3ccccc3n2)CC[C@@H]1CO` the “% Inhibition” value was -17% and the Z score was 2.23.
For `COCc1nc(NCCCc2ccccc2F)cc([C@H]2C[C@@H](N)C2)n1`, the “% Inhibition” value was 11% and the Z score was -1.63.
For `O=C(NCC1(N2CCCC2)CCCC1)c1cc(=O)n(-c2ccccc2)[nH]1`, the “% Inhibition” value was -6% and the Z score was 1.07.
With `Cc1nc(C)c(C(=O)N2CCNC(=O)[C@@H](CC(C)C)NC(=O)c3cc(F)ccc3OCCn3cc(nn3)CC2)s1` the “% Inhibition” value was 1% and the Z score was -0.14.
For `Oc1ccc2c(c1)CN(CCc1cn[nH]c1)C2`, the “% Inhibition” value was -4% and the Z score was 0.4.
`COc1ccc(NC(=O)[C@H](Nc2ccc3oc(C)nc3c2)c2ccccc2)cc1Cl` was tested, and the “% Inhibition” value was 19% and the Z score was -2.17.
For `Cc1cccc(NC(=O)[C@@H](C#N)C(=O)C2CCC2)c1`, the “% Inhibition” value was 31% and the Z score was -0.83.
For `Cc1nc2cc(N3CCC(C(=O)NCc4cccs4)CC3)cnc2nc1C`, the “% Inhibition” value was -9% and the Z score was 1.4.
For `CCn1cc(C)c(C(=O)O)c1CC(=O)Nc1ccc(C)c(C)c1`, the “% Inhibition” value was -17% and the Z score was 2.28.
`C[C@H](NC(=O)NCc1nccn1C)c1noc(-c2ccccc2)n1` was tested, and the “% Inhibition” value was -4% and the Z score was 0.49.
`Cc1cccc(C)c1Oc1ccccc1NC(=O)CCc1nnc[nH]1` was tested, and the “% Inhibition” value was 36% and the Z score was -4.88.
In the case of `COc1ccc(-c2nc([C@H]3CC(=O)N(c4ccc(Cl)cc4)C3)no2)cc1F`, the “% Inhibition” value is reported as -1% and the Z score is reported as 0.14.
